Data as given in the supplement of paper PMC8728848.
Some of the results follow.

Columns and labels:
Assay in all cases: glycan array binding signal (z-score within array); higher = stronger binding
Conditions in all cases: glycan notation: IUPAC condensed, linker removed
[1] = target: Neu5Ac(a2-3)Gal(b1-4)[Fuc(a1-3)]GlcNAc6S
How it was run: (§1)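 The Consortium for Functional Glycomics database supplied 3228 glycan arrays, of which those lacking an available protein sequence were dropped. The binding signal, a within-array Z-score, was averaged across arrays of the same protein sequence and across linkers. Negative scores can be read as non-binding.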

[2] = target: Neu5Ac(a2-3)Gal6S(b1-4)GlcNAc
How it was run: as §1

[3] = target: Neu5Ac(a2-3)Gal6S(b1-4)[Fuc(a1-3)]GlcNAc
How it was run: as §1

[4] = target: Neu5Ac(a2-3)GalNAc
How it was run: as §1

[5] = target: Neu5Ac(a2-3)GalNAc(b1-4)GlcNAc
How it was run: as §1

[6] = target: Neu5Ac(a2-3)[GalNAc(b1-4)]Gal(b1-4)Glc
How it was run: as §1

[7] = target: Neu5Ac(a2-3)[GalNAc(b1-4)]Gal(b1-4)GlcNAc
How it was run: as §1

[8] = target: Neu5Ac(a2-3)[GalNAc(b1-4)]Gal(b1-4)GlcNAc(b1-3)GalNAc
How it was run: as §1

[9] = target: Neu5Ac(a2-3)[Neu5Ac(a2-6)]GalNAc
How it was run: as §1

[10] = target: Neu5Ac(a2-6)Gal
How it was run: as §1

[11] = target: Neu5Ac(a2-6)Gal(b1-3)GlcNAc(b1-3)[Gal(b1-4)GlcNAc(b1-6)]Gal(b1-4)Glc
How it was run: as §1

[12] = target: Neu5Ac(a2-6)Gal(b1-4)Glc
How it was run: as §1

[13] = target: Neu5Ac(a2-6)Gal(b1-4)GlcNAc
How it was run: as §1

[14] = target: Neu5Ac(a2-6)Gal(b1-4)GlcNAc(b1-2)Man(a1-3)Man(b1-4)GlcNAc(b1-4)GlcNAc
How it was run: as §1

[15] = target: Neu5Ac(a2-6)Gal(b1-4)GlcNAc(b1-2)Man(a1-3)[Gal(b1-4)GlcNAc(b1-2)Man(a1-6)]Man(b1-4)GlcNAc(b1-4)GlcNAc
How it was run: as §1

[16] = target: Neu5Ac(a2-6)Gal(b1-4)GlcNAc(b1-2)Man(a1-3)[GlcNAc(b1-2)Man(a1-6)]Man(b1-4)GlcNAc(b1-4)GlcNAc
How it was run: as §1

[17] = target: Neu5Ac(a2-6)Gal(b1-4)GlcNAc(b1-2)Man(a1-3)[GlcNAc(b1-2)Man(b1-4)GlcNAc(b1-2)Man(a1-6)]Man(b1-4)GlcNAc(b1-4)GlcNAc
How it was run: as §1

[18] = target: Neu5Ac(a2-6)Gal(b1-4)GlcNAc(b1-2)Man(a1-3)[Man(a1-6)]Man(b1-4)GlcNAc(b1-4)GlcNAc
How it was run: as §1

[19] = target: Neu5Ac(a2-6)Gal(b1-4)GlcNAc(b1-2)Man(a1-3)[Neu5Ac(a2-6)Gal(b1-4)GlcNAc(b1-2)Man(a1-6)]Man(b1-4)GlcNAc(b1-4)GlcNAc
How it was run: as §1

[20] = target: Neu5Ac(a2-6)Gal(b1-4)GlcNAc(b1-2)Man(a1-3)[Neu5Ac(a2-6)Gal(b1-4)GlcNAc(b1-2)Man(a1-6)]Man(b1-4)GlcNAc(b1-4)[Fuc(a1-6)]GlcNAc
How it was run: as §1

[21] = target: Neu5Ac(a2-6)Gal(b1-4)GlcNAc(b1-2)Man(a1-6)Man(b1-4)GlcNAc(b1-4)GlcNAc
How it was run: as §1

[22] = target: Neu5Ac(a2-6)Gal(b1-4)GlcNAc(b1-2)Man(a1-6)[Gal(b1-4)GlcNAc(b1-2)Man(a1-3)]Man(b1-4)GlcNAc(b1-4)GlcNAc
How it was run: as §1

[23] = target: Neu5Ac(a2-6)Gal(b1-4)GlcNAc(b1-2)Man(a1-6)[GlcNAc(b1-2)Man(a1-3)]Man(b1-4)GlcNAc(b1-4)GlcNAc
How it was run: as §1

[24] = target: Neu5Ac(a2-6)Gal(b1-4)GlcNAc(b1-2)Man(a1-6)[Man(a1-3)]Man(b1-4)GlcNAc(b1-4)GlcNAc
How it was run: as §1

[25] = target: Neu5Ac(a2-6)Gal(b1-4)GlcNAc(b1-3)Gal(b1-3)GlcNAc
How it was run: as §1

[26] = target: Neu5Ac(a2-6)Gal(b1-4)GlcNAc(b1-3)Gal(b1-4)GlcNAc
How it was run: as §1

[27] = target: Neu5Ac(a2-6)Gal(b1-4)GlcNAc(b1-3)Gal(b1-4)GlcNAc(b1-3)Gal(b1-4)GlcNAc
How it was run: as §1

[28] = target: Neu5Ac(a2-6)Gal(b1-4)GlcNAc(b1-3)Gal(b1-4)[Fuc(a1-3)]GlcNAc(b1-3)Gal(b1-4)[Fuc(a1-3)]GlcNAc
How it was run: as §1

[29] = target: Neu5Ac(a2-6)Gal(b1-4)GlcNAc(b1-3)GalNAc
How it was run: as §1

[30] = target: Neu5Ac(a2-6)Gal(b1-4)GlcNAc(b1-3)[Neu5Ac(a2-6)Gal(b1-4)GlcNAc(b1-6)]GalNAc
How it was run: as §1

[31] = target: Neu5Ac(a2-6)Gal(b1-4)GlcNAc(b1-6)GalNAc
How it was run: as §1

[32] = target: Neu5Ac(a2-6)Gal(b1-4)GlcNAc(b1-6)[Gal(b1-3)GlcNAc(b1-3)]Gal(b1-4)Glc
How it was run: as §1

[33] = target: Neu5Ac(a2-6)Gal(b1-4)GlcNAc6S
How it was run: as §1

[34] = target: Neu5Ac(a2-6)GalNAc
How it was run: as §1

[35] = target: Neu5Ac(a2-6)GalNAc(b1-4)GlcNAc
How it was run: as §1

[36] = target: Neu5Ac(a2-6)GalNAc(b1-4)GlcNAc6S
How it was run: as §1

[37] = target: Neu5Ac(a2-6)GlcNAc(b1-4)GlcNAc
How it was run: as §1

[38] = target: Neu5Ac(a2-6)GlcNAc(b1-4)GlcNAc(b1-4)GlcNAc
How it was run: as §1

[39] = target: Neu5Ac(a2-8)Neu5Ac
How it was run: as §1

[40] = target: Neu5Ac(a2-8)Neu5Ac(a2-3)Gal(b1-3)GalNAc(b1-4)[Neu5Ac(a2-8)Neu5Ac(a2-3)]Gal(b1-4)Glc
How it was run: as §1

[41] = target: Neu5Ac(a2-8)Neu5Ac(a2-3)Gal(b1-4)Glc
How it was run: as §1

[42] = target: Neu5Ac(a2-8)Neu5Ac(a2-3)[Gal(b1-3)GalNAc(b1-4)]Gal(b1-4)Glc
How it was run: as §1

[43] = target: Neu5Ac(a2-8)Neu5Ac(a2-3)[GalNAc(b1-4)]Gal(b1-4)Glc
How it was run: as §1

[44] = target: Neu5Ac(a2-8)Neu5Ac(a2-8)Neu5Ac
How it was run: as §1

[45] = target: Neu5Ac(a2-8)Neu5Ac(a2-8)Neu5Ac(a2-3)Gal(b1-4)Glc
How it was run: as §1

[46] = target: Neu5Ac(a2-8)Neu5Ac(a2-8)Neu5Ac(a2-3)[GalNAc(b1-4)]Gal(b1-4)Glc
How it was run: as §1

[47] = target: Neu5Ac(a2-8)Neu5Ac(a2-8)Neu5Ac(a2-8)Neu5Ac(a2-3)[GalNAc(b1-4)]Gal(b1-4)Glc
How it was run: as §1

[48] = target: Neu5Ac(b2-6)Gal(b1-4)GlcNAc
How it was run: as §1

[49] = target: Neu5Ac(b2-6)GalNAc
How it was run: as §1

[50] = target: Neu5Ac9Ac(a2-3)Gal(b1-3)GlcNAc
How it was run: as §1

[51] = target: Neu5Ac9Ac(a2-3)Gal(b1-4)GlcNAc
How it was run: as §1

[52] = target: Neu5Ac9Ac(a2-6)Gal(b1-4)GlcNAc
How it was run: as §1

[53] = target: Neu5Gc(a2-3)Gal(b1-3)GlcNAc
How it was run: as §1

[54] = target: Neu5Gc(a2-3)Gal(b1-3)[Fuc(a1-4)]GlcNAc
How it was run: as §1

[55] = target: Neu5Gc(a2-3)Gal(b1-4)Glc
How it was run: as §1

[56] = target: Neu5Gc(a2-3)Gal(b1-4)GlcNAc
How it was run: as §1

[57] = target: Neu5Gc(a2-3)Gal(b1-4)[Fuc(a1-3)]GlcNAc
How it was run: as §1

[58] = target: Neu5Gc(a2-6)Gal(b1-4)GlcNAc
How it was run: as §1

[59] = target: Neu5Gc(a2-6)GalNAc
How it was run: as §1

[60] = target: Neu5Gc(b2-6)Gal(b1-4)GlcNAc
How it was run: as §1

B1: Gal 4 (Homo sapiens), Q8K419 (protein)
chain: MAYVPAPGYQPTYNPTLPYKRPIPGGLSVGMSVYIQGMAKENMRRFHVNFAVGQDDGADVAFHFNPRFDGWDKVVFNTMQSGQWGKEEKKKSMPFQKGKHFELVFMVMPEHYKVVVNGNSFYEYGHRLPVQMVTHLQVDGDLELQSINFLGGQPAAAPYPGAMTIPAYPAGSPGYNPPQMNTLPVMTGPPVFNPRVPYVGALQGGLTVRRTIIIKGYVLPTARNFVINFKVGSSGDIALHLNPRIGDSVVRNSFMNGSWGAEERKVAYNPFGPGQFFDLSIRCGMDRFKVFANGQHLFDFSHRFQAFQMVDTLEINGDITLSYVQI
[1]
  glycan array binding signal (z-score): -0.203
[2]
  glycan array binding signal (z-score): -0.201
[3]
  glycan array binding signal (z-score): -0.207
[4]
  glycan array binding signal (z-score): -0.203
[5]
  glycan array binding signal (z-score): -0.204
[6]
  glycan array binding signal (z-score): -0.203
[7]
  glycan array binding signal (z-score): -0.2
[8]
  glycan array binding signal (z-score): -0.147
[9]
  glycan array binding signal (z-score): -0.209
[10]
  glycan array binding signal (z-score): -0.196
[11]
  glycan array binding signal (z-score): -0.198
[12]
  glycan array binding signal (z-score): -0.196
[13]
  glycan array binding signal (z-score): -0.202
[14]
  glycan array binding signal (z-score): -0.205
[15]
  glycan array binding signal (z-score): -0.198
[16]
  glycan array binding signal (z-score): -0.203
[17]
  glycan array binding signal (z-score): -0.19
[18]
  glycan array binding signal (z-score): -0.236
[19]
  glycan array binding signal (z-score): -0.187
[20]
  glycan array binding signal (z-score): -0.396
[21]
  glycan array binding signal (z-score): -0.204
[22]
  glycan array binding signal (z-score): -0.2
[23]
  glycan array binding signal (z-score): -0.202
[24]
  glycan array binding signal (z-score): -0.204
[25]
  glycan array binding signal (z-score): 0.677
[26]
  glycan array binding signal (z-score): -0.121
[27]
  glycan array binding signal (z-score): -0.062
[28]
  glycan array binding signal (z-score): -0.206
[29]
  glycan array binding signal (z-score): -0.198
[30]
  glycan array binding signal (z-score): -0.21
[31]
  glycan array binding signal (z-score): -0.211
[32]
  glycan array binding signal (z-score): -0.196
[33]
  glycan array binding signal (z-score): -0.203
[34]
  glycan array binding signal (z-score): -0.201
[35]
  glycan array binding signal (z-score): -0.207
[36]
  glycan array binding signal (z-score): -0.207
[37]
  glycan array binding signal (z-score): -0.205
[38]
  glycan array binding signal (z-score): -0.208
[39]
  glycan array binding signal (z-score): -0.203
[40]
  glycan array binding signal (z-score): -0.331
[41]
  glycan array binding signal (z-score): -0.204
[42]
  glycan array binding signal (z-score): -0.201
[43]
  glycan array binding signal (z-score): -0.205
[44]
  glycan array binding signal (z-score): -0.207
[45]
  glycan array binding signal (z-score): -0.203
[46]
  glycan array binding signal (z-score): -0.178
[47]
  glycan array binding signal (z-score): -0.197
[48]
  glycan array binding signal (z-score): -0.208
[49]
  glycan array binding signal (z-score): -0.196
[50]
  glycan array binding signal (z-score): -0.197
[51]
  glycan array binding signal (z-score): -0.189
[52]
  glycan array binding signal (z-score): -0.2
[53]
  glycan array binding signal (z-score): -0.189
[54]
  glycan array binding signal (z-score): -0.208
[55]
  glycan array binding signal (z-score): -0.186
[56]
  glycan array binding signal (z-score): -0.201
[57]
  glycan array binding signal (z-score): -0.204
[58]
  glycan array binding signal (z-score): -0.191
[59]
  glycan array binding signal (z-score): -0.196
[60]
  glycan array binding signal (z-score): -0.201
